Among the data in paper PMC9911399, “Two distinct binding modes provide the RNA-binding protein RbFox with extraordinary sequence specificity” are binding signal values, retold here.

Sequences and labels used below:
T1: RBFOX1 RRM (Homo sapiens, UniProt Q9NWB1 109-208)
T1 sequence: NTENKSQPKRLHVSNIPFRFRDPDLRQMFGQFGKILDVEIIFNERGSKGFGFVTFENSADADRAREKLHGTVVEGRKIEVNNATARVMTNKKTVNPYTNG

B1: AUCGAAG (DNA:RNA)
RNA: GGGAGACCGGAAUUCAGAUUGUCCAUCGAAGUUAAAUCCCGUCGUAGCCACCA
DNA 1: CAATCTGAATTCCGGTCTCCC
DNA 2: TGGTGGCTACGACGGGATT
B2: CGUUCGG (DNA:RNA)
RNA: B1 RNA with A25C, U26G, C27U, G28U, A29C, A30G
DNA 1: CAATCTGAATTCCGGTCTCCC
DNA 2: TGGTGGCTACGACGGGATT
B3: GUAUUUU (DNA:RNA)
RNA: B1 RNA with A25G, C27A, G28U, A29U, A30U, G31U
DNA 1: CAATCTGAATTCCGGTCTCCC
DNA 2: TGGTGGCTACGACGGGATT
B4: UUAUACA (DNA:RNA)
RNA: B1 RNA with A25U, C27A, G28U, A30C, G31A
DNA 1: CAATCTGAATTCCGGTCTCCC
DNA 2: TGGTGGCTACGACGGGATT
B5: CCAGUUU (DNA:RNA)
RNA: B1 RNA with A25C, U26C, C27A, A29U, A30U, G31U
DNA 1: CAATCTGAATTCCGGTCTCCC
DNA 2: TGGTGGCTACGACGGGATT
B6: AAAGCAA (DNA:RNA)
RNA: B1 RNA with U26A, C27A, A29C, G31A
DNA 1: CAATCTGAATTCCGGTCTCCC
DNA 2: TGGTGGCTACGACGGGATT
B7: UAAAGAG (DNA:RNA)
RNA: B1 RNA with A25U, U26A, C27A, G28A, A29G
DNA 1: CAATCTGAATTCCGGTCTCCC
DNA 2: TGGTGGCTACGACGGGATT
B8: GUGGGAU (DNA:RNA)
RNA: B1 RNA with A25G, C27G, A29G, G31U
DNA 1: CAATCTGAATTCCGGTCTCCC
DNA 2: TGGTGGCTACGACGGGATT
B9: UCUUUUC (DNA:RNA)
RNA: GGGAGACCGGAAUUCAGAUUGUCCUCUUUUCUUAAAUCCCGUCGUAGCCACCA
DNA 1: CAATCTGAATTCCGGTCTCCC
DNA 2: TGGTGGCTACGACGGGATT
B10: UACUUGC (DNA:RNA)
RNA: B9 RNA with C26A, U27C, U30G
DNA 1: CAATCTGAATTCCGGTCTCCC
DNA 2: TGGTGGCTACGACGGGATT
B11: GUGGGGC (DNA:RNA)
RNA: B1 RNA with A25G, C27G, A29G, A30G, G31C
DNA 1: CAATCTGAATTCCGGTCTCCC
DNA 2: TGGTGGCTACGACGGGATT
B12: CUGUCCA (DNA:RNA)
RNA: B1 RNA with A25C, C27G, G28U, A29C, A30C, G31A
DNA 1: CAATCTGAATTCCGGTCTCCC
DNA 2: TGGTGGCTACGACGGGATT
B13: UGCAGUA (DNA:RNA)
RNA: B9 RNA with C26G, U27C, U28A, U29G, C31A
DNA 1: CAATCTGAATTCCGGTCTCCC
DNA 2: TGGTGGCTACGACGGGATT
B14: CAUUUGC (DNA:RNA)
RNA: B9 RNA with U25C, C26A, U30G
DNA 1: CAATCTGAATTCCGGTCTCCC
DNA 2: TGGTGGCTACGACGGGATT
B15: CGAAGCC (DNA:RNA)
RNA: B9 RNA with U25C, C26G, U27A, U28A, U29G, U30C
DNA 1: CAATCTGAATTCCGGTCTCCC
DNA 2: TGGTGGCTACGACGGGATT
B16: UAUCCUC (DNA:RNA)
RNA: B9 RNA with C26A, U28C, U29C
DNA 1: CAATCTGAATTCCGGTCTCCC
DNA 2: TGGTGGCTACGACGGGATT
B17: CCUUCGG (DNA:RNA)
RNA: B9 RNA with U25C, U29C, U30G, C31G
DNA 1: CAATCTGAATTCCGGTCTCCC
DNA 2: TGGTGGCTACGACGGGATT
B18: CCAUGUC (DNA:RNA)
RNA: B9 RNA with U25C, U27A, U29G
DNA 1: CAATCTGAATTCCGGTCTCCC
DNA 2: TGGTGGCTACGACGGGATT
B19: GUGGGAA (DNA:RNA)
RNA: B1 RNA with A25G, C27G, A29G, G31A
DNA 1: CAATCTGAATTCCGGTCTCCC
DNA 2: TGGTGGCTACGACGGGATT
B20: GGACCCU (DNA:RNA)
RNA: GGGAGACCGGAAUUCAGAUUGUCCGGACCCUUUAAAUCCCGUCGUAGCCACCA
DNA 1: CAATCTGAATTCCGGTCTCCC
DNA 2: TGGTGGCTACGACGGGATT
B21: UUACGGG (DNA:RNA)
RNA: B1 RNA with A25U, C27A, G28C, A29G, A30G
DNA 1: CAATCTGAATTCCGGTCTCCC
DNA 2: TGGTGGCTACGACGGGATT
B22: AUGCAUU (DNA:RNA)
RNA: B1 RNA with C27G, G28C, A30U, G31U
DNA 1: CAATCTGAATTCCGGTCTCCC
DNA 2: TGGTGGCTACGACGGGATT
B23: AUCAAGU (DNA:RNA)
RNA: B1 RNA with G28A, A30G, G31U
DNA 1: CAATCTGAATTCCGGTCTCCC
DNA 2: TGGTGGCTACGACGGGATT
B24: GUUGCAG (DNA:RNA)
RNA: B1 RNA with A25G, C27U, A29C
DNA 1: CAATCTGAATTCCGGTCTCCC
DNA 2: TGGTGGCTACGACGGGATT
B25: ACAUAAU (DNA:RNA)
RNA: B1 RNA with U26C, C27A, G28U, G31U
DNA 1: CAATCTGAATTCCGGTCTCCC
DNA 2: TGGTGGCTACGACGGGATT
B26: CCUAUAC (DNA:RNA)
RNA: B9 RNA with U25C, U28A, U30A
DNA 1: CAATCTGAATTCCGGTCTCCC
DNA 2: TGGTGGCTACGACGGGATT
B27: GAAUUGU (DNA:RNA)
RNA: B20 RNA with G26A, C28U, C29U, C30G
DNA 1: CAATCTGAATTCCGGTCTCCC
DNA 2: TGGTGGCTACGACGGGATT
B28: AGCUACA (DNA:RNA)
RNA: B1 RNA with U26G, G28U, A30C, G31A
DNA 1: CAATCTGAATTCCGGTCTCCC
DNA 2: TGGTGGCTACGACGGGATT
B29: AGUUAGA (DNA:RNA)
RNA: B1 RNA with U26G, C27U, G28U, A30G, G31A
DNA 1: CAATCTGAATTCCGGTCTCCC
DNA 2: TGGTGGCTACGACGGGATT
B30: UUAAAUC (DNA:RNA)
RNA: B9 RNA with C26U, U27A, U28A, U29A
DNA 1: CAATCTGAATTCCGGTCTCCC
DNA 2: TGGTGGCTACGACGGGATT
B31: CUUCCUU (DNA:RNA)
RNA: B20 RNA with G25C, G26U, A27U, C30U
DNA 1: CAATCTGAATTCCGGTCTCCC
DNA 2: TGGTGGCTACGACGGGATT

Positions count from the first letter of the chain named. The list shows a part of the results.

The target in this assay is T1, RBFOX1 RRM. Put plainly: EMSA; HiTS-Eq, 1 nM pool, 10 min; buffer printed only for the single-RNA assays: 10 mM Tris pH 7.5, 150 mM NaCl, 3.4 mM EDTA, 0.001% NP-40, 30 C. The settings on record: tags: His6 N-terminal (pET28a); label: 5' 32P. The essentials: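 These values rest on relative association constants, computed from read-count changes of each RNA species versus the control reaction and normalised to the cognate motif. Reads came from free RNA recovered by 8% native PAGE after purified RbFox RRM (wild type or mutant) at increasing concentrations was equilibrated for 10 min in 50 µL with 1 nM of a 5′-radiolabelled pool with 7 randomized nucleotides and DNA-annealed flanks.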
(A gel shift assay detects complexes by their altered migration in electrophoresis.)
With B1, the binding signal was 0.0041 KA relative to UGCAUGU.

B2: the binding signal is 0.0132 KA relative to UGCAUGU.

Regarding B3, the binding signal is 0.00924 KA relative to UGCAUGU.

In the case of B4, the binding signal was 0.00478 KA relative to UGCAUGU.

Turning to B5, the binding signal was 0.0067 KA relative to UGCAUGU.

In the case of B6, the binding signal was 0.000628 KA relative to UGCAUGU.

Take B7: the binding signal is 0.00393 KA relative to UGCAUGU.

For the molecule B8, the binding signal was 0.0133 KA relative to UGCAUGU.

Consider B9, for which the binding signal is 0.0107 KA relative to UGCAUGU.

In the case of B10, the binding signal is 0.0149 KA relative to UGCAUGU.

For B11, the binding signal is 0.0153 KA relative to UGCAUGU.

As for B12, the binding signal was 0.0087 KA relative to UGCAUGU.

As for B13, the binding signal was 0.0125 KA relative to UGCAUGU.

Take B14: the binding signal was 0.00998 KA relative to UGCAUGU.

Take B15: the binding signal was 0.006 KA relative to UGCAUGU.

Consider B16, for which the binding signal was 0.00434 KA relative to UGCAUGU.

For B17, the binding signal is 0.0125 KA relative to UGCAUGU.

With B18, the binding signal is 0.0027 KA relative to UGCAUGU.

As to B19, the binding signal was 0.0137 KA relative to UGCAUGU.

In the case of B20, the binding signal is 0.00658 KA relative to UGCAUGU.

Turning to B21, the binding signal is 0.00351 KA relative to UGCAUGU.

On to B22, for which the binding signal is 0.0122 KA relative to UGCAUGU.

In the case of B23, the binding signal was 0.00367 KA relative to UGCAUGU.

Take B24: the binding signal is 0.0214 KA relative to UGCAUGU.

Consider B25, for which the binding signal is 0.000268 KA relative to UGCAUGU.

On to B26, for which the binding signal was 0.00132 KA relative to UGCAUGU.

With B27, the binding signal was 0.015 KA relative to UGCAUGU.

Take B28: the binding signal is 0.0034 KA relative to UGCAUGU.

As to B29, the binding signal was 0.00929 KA relative to UGCAUGU.

B30: the binding signal is 0.00565 KA relative to UGCAUGU.

Consider B31, for which the binding signal is 0.00719 KA relative to UGCAUGU.
